Several values for one entry are separate records, joined by “and”; a condition that tells them apart may be missing. Identical values can stand only once. The campaign covered roughly 360,000 compounds. About 6,000 (1.7%) were called active. This list was built around the results that the source calls inconclusive (neither active nor inactive); the mix of calls is not that of the screen. The call rests on the fitted dose curve; in most records, active means well fitted cell-killing curve with a large enough effect; inconclusive means small, poorly fitted or top-dose-only effect, or effect the other way; inactive means flat fitted curve, though single readings scatter. No potency is given beside an inconclusive call; the fits are too rough.
assay: qHTS for induction of synthetic lethality in tumor cells producing 2HG: qHTS for the HT-1080-NT fibrosarcoma cell line; settings: HT-1080-NT fibrosarcoma viability, CellTiter-Glo ATP luminescence, 48 h; activity, negative = less viability: at 46.1 µM (top of the series) unless noted;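 further: NT is the 2HG producing partner of a matched IDH1 knockdown line; nearly all actives have a fitted effect of over 55% in size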;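 on activity, negative = less viability: 0% = DMSO-treated cells and -100% = media-only wells without cells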
How it was run: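 HT-1080-NT; 750 cells/well; 5% FBS RPMI; 48 h compound, 37 degrees C; CellTiter-Glo luminescence; curve fitting and curve-class assignment.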
Potency means the concentration at half of the fitted maximal effect; tags describe the fitted curve by direction and shape.

Structure (SMILES) | Potency | activity, negative = less viability
Cc1ccc(OCc2nnc(SCc3cc(=O)[nH]c4ccccc34)n2-c2ccccc2)cc1 | active: 16.4 µM | 
CCOC(=O)Nc1ccc2c(c1)Sc1ccccc1N2C(=O)CCN1CCOCC1 | inactive | 
CC(C)C1CCN(C(=O)C2CCC(=O)N(CCc3ccc(Cl)cc3)C2)CC1 (configuration not stated) | inactive | 
CCOc1ccc2[nH]c(=O)c(CN(Cc3nnnn3Cc3ccccc3)CC3CCCO3)cc2c1 (configuration not stated) | active: 6.31 µM | 
COc1ccc(CN2C(=O)C(CC(=O)NCCc3ccccn3)CC(C(=O)N(C(C)C)C(C)C)=C2C)cc1 (configuration not stated) | inactive | 
CC(=O)c1ccc(N2CCN(C(=O)c3ccc(NC(=O)C4CCCO4)cc3)CC2)cc1 (configuration not stated) | inactive | 
COc1ccc(CCNC(=O)COc2ccc(-c3ccccc3)cc2)cc1OC | inactive | 
O=C(NC1CCCCC1)c1cnn2c(C(F)(F)F)cc(-c3ccco3)nc12 | inconclusive [cytotoxic, single point] | 
CC(C)(C)C(=O)c1cnc(Nc2ccccc2)s1 | inconclusive [cytotoxic, single point] | 
O=C1c2ccccc2C(=O)C1Cc1cccc2ccccc12 |  | inconclusive: -5.3% [cytotoxic]
COc1cccc(C(C[N+](=O)[O-])c2c(C)[nH]n(-c3ccccc3)c2=O)c1 (configuration not stated) | inconclusive [cytotoxic, single point] | 
NC(=S)n1[nH]c(-c2ccc([N+](=O)[O-])cc2)c(N=Nc2ccc(Cl)cc2)c1=O | active: 2.59 µM | 
Cc1ccc(-c2nc(CS(=O)(=O)CC(=O)N3CC(C)CC(C)C3)c(C)o2)cc1 (configuration not stated) | inconclusive [cytotoxic, single point] | 
COc1ccc(Cc2nnc(SCC(=O)Nc3nc(C)cs3)o2)cc1 | inconclusive [cytotoxic, single point] | 
CCCCC[C@H](O)/C=C/C1C(=O)C=C[C@H]1C/C=C\CCCC(=O)OC (some centres not stated) | inconclusive [cytotoxic, single point] | 
CC1(c2ccc([N+](=O)[O-])cc2)Nc2ccccc2S1 (configuration not stated) | inconclusive [cytotoxic, single point] | 
C[C@H](c1ccccc1)N1C[C@H](COCc2ccccc2)Oc2cc(N3CC[C@@H](O)C3)ccc2S1(=O)=O | inconclusive [cytotoxic, single point] | 
CCOc1cc(C(=O)OCC(=O)Nc2ccc(F)cc2Cl)ccc1OCC(=O)N1CCOCC1 | inactive | 
[N-]=[N+]=NC1C[C@H](n2ccc(=O)[nH]c2=O)O[C@@H]1CO (some centres not stated) | inconclusive [rising, partial curve, poor fit] | 
Cc1cc2nc(Sc3c([N+](=O)[O-])nc(C)n3Cc3ccccc3)[nH]c2cc1C | inconclusive [cytotoxic, single point] | 
C[C@H]1NC(=O)[C@]2(C)[C@@H](c3ccccc3)[C@H]3COc4ccccc4[C@H]3N2C1=O | inactive | 
Cc1ccc(CNS(=O)(=O)c2cc3c4c(c2)C(C)C(=O)N4CCC3)cc1 (configuration not stated) | inactive | 
COc1ccc(CNCC(O)COc2cccc3c2OC(C)(C)C3)cc1 (configuration not stated) | inconclusive [cytotoxic, single point] | 
Cc1ccc(NC(=O)[C@@H]2O[C@H](CO)[C@H](O)[C@H](O)[C@H]2O)cc1C(F)(F)F | inconclusive [rising, single point] | 

Structure (SMILES) | Potency | activity, negative = less viability
O=C(NCCN1CCC(n2c(=O)[nH]c3ccccc32)CC1)c1ccc(F)c(C(F)(F)F)c1 | inconclusive [cytotoxic, single point] | 
O=C(NN1CCCCC1)NN1CCCCC1 | inactive | 
COc1ccc(CNC(=O)CC[C@H]2O[C@@H](n3cc(C)c(=O)[nH]c3=O)C[C@@H]2O)cc1 | inactive | 
COc1cc(NC(=O)c2ccnc(N)c2)cc(C(=O)Nc2cccc(C(F)(F)F)c2)c1 | inconclusive [rising, single point] | 
CCC(CO)Oc1cc(NCc2ccccc2O)c2ncn(C(C)C)c2c1 (configuration not stated) | inconclusive [cytotoxic, partial curve, poor fit] | 
O=C(Nc1ccccc1NC(=O)c1c(F)cccc1F)c1c(F)cccc1F | inactive | 
CC1=NN(c2ccccc2)C(=O)C1 | inconclusive [rising, single point] | 
COc1ccccc1/C=N/NC(=O)CSc1cc(C)nc2ccccc12 | inconclusive [cytotoxic, partial curve] | 
CCNC(=O)c1cc2c(c(-c3cccc(-c4ccccc4F)c3)n1)[C@@H](CCO)N(C(=O)CC1CC1)C2 | inconclusive [cytotoxic, partial curve] | 
Cc1ccccc1CN1C(=O)c2ccccc2C1c1nnnn1-c1ccc2c(c1)OCCO2 (configuration not stated) | active: 3.66 µM | 
C/C(=N\Nc1ccc([N+](=O)[O-])cc1[N+](=O)[O-])c1cccnc1 | inactive | 
COc1ccccc1/C=C1\SC(=S)N(CCC(=O)NCCc2ccc(O)cc2)C1=O | inconclusive [cytotoxic, single point] | 
Cc1nc(NC(=O)c2ccc(Cl)cc2)sc1Cc1ccc2c(c1)OCO2 | active: 10.3 µM | 
COc1ccc(C(=O)c2cc([N+](=O)[O-])ccc2N2CCCC2)cc1 | active: 3.26 µM | 
CC1=CC2=C(C=O)C(=O)C(C)(O)C(O)C2=CO1 (configuration not stated) | inconclusive [cytotoxic, single point] | 
Cc1ccc(C(CC(=O)N2CCOCC2)c2ccco2)cc1 (configuration not stated) | inactive | 
Cc1nnnn1/C(=C\c1ccccc1)C(=O)OCC(=O)NC1CCCCC1 | inconclusive [cytotoxic, partial curve] | 
COc1ccc(CCNC(=O)C2CCN(Cc3nc(-c4cccc(Cl)c4)oc3C)CC2)cc1OC | inactive | 
CC1(C)SC(=S)N(/N=C/c2ccc(O)cc2)C1N(O)C(=O)Nc1ccc([N+](=O)[O-])cc1 (configuration not stated) | inconclusive [cytotoxic, partial curve] | 
CC1(C)Cc2nc3sc(C(=O)NCCO)c(N)c3cc2CO1 |  | inconclusive: 10% [cytotoxic]
O=C(NCc1ccccc1)C1Cc2c(-c3cccc(F)c3)ccnc2O1 (configuration not stated) | inconclusive [cytotoxic, full curve] | 
COc1cccc(CNCCc2c[nH]c3ccccc23)c1OCc1ccccc1F | inconclusive [cytotoxic, single point] | 
CC(NC(=S)Nc1ccc(OC(F)F)c(Cl)c1)C(C)(C)C (configuration not stated) | inconclusive [cytotoxic, single point] | 
CC(=NNC(=O)c1ccncc1)c1cccc(Cl)c1 | inactive | 

Structure (SMILES) | Potency | activity, negative = less viability
COc1ccc(C)cc1-n1nnnc1SCc1nc(N)nc(N(C)C)n1 | inconclusive [cytotoxic, partial curve, poor fit] | 
O=S(=O)(Nc1ccc(S(=O)(=O)N2CCCCC2)cc1)c1ccc(Br)s1 | inconclusive [cytotoxic, single point] | 
COc1cc(OC)nc(Nc2nc(CN)cs2)n1 | inconclusive [rising, single point] | 
CCN1CCN(CC(=O)Nc2sc3c(c2C#N)CCC(C)C3)CC1 (configuration not stated) | active: 18.4 µM | 
CC(=O)Nc1ccc(NC(=O)CSCc2ccccc2Cl)cc1 | inactive | 
COc1ccc(NC2=C(C(C)=O)C(c3ccc4c(c3)OCO4)C(C(C)=O)C(C)(O)C2)cc1 (configuration not stated) | inconclusive [cytotoxic, single point] | 
COc1cc(OC)c(CN2CCC(Cc3ccccc3)CC2)cc1Br | inactive | 
CCn1cc(CN2CCc3c([nH]c4ccccc34)C2c2ccc(F)c(OC)c2)c(C)n1 (configuration not stated) | inconclusive [cytotoxic, single point] | 
Cc1cccc(NC(=O)CSc2nnc(CNC(=O)c3ccco3)o2)c1 | inactive | 
CCC(C(=O)NC(C)(C)C)N(C(=O)Cn1nnc(-c2ccccc2F)n1)c1cnc2ccccc2c1 (configuration not stated) | inactive | 
Cc1ccc(NC(=S)N(CCN(C)C)C(C)c2ccco2)c(C)c1 (configuration not stated) | inconclusive [rising, single point] | 
BrC(=C\c1ccccc1)/C=N/N1CCN(c2ccccc2)CC1 | inconclusive [cytotoxic, single point] | 
O=C(CSc1n[nH]c(-c2ccccn2)n1)Nc1ccc(Cl)cc1 | inconclusive [cytotoxic, full curve] | 
CCCN(CCC)c1ccc(/C=C/c2ccc3cc(OCC)ccc3n2)cc1 | inactive | 
Cc1ccc(O)c(C(=O)c2cnc3c(c2)c(=O)n(C)c(=O)n3C)c1 | inactive | 
C1CCC(C(CC2CCCCN2)C2CCCCC2)CC1 (configuration not stated) | active: 13 µM and active: 11.6 µM | 
CCCCn1c(N)c(N(CC(C)C)C(=O)c2cc(Br)c(Br)s2)c(=O)[nH]c1=O | inactive | 
CCCc1nc2nc(C)c(NS(=O)(=O)c3ccc(C)c(C)c3)c(=O)n2[nH]1 | inactive | 
O=C(Cc1csc(NC(=O)c2ccccc2)n1)NO | inconclusive [cytotoxic, partial curve] | 
CCC(C)[C@H]1CNC(=O)C(=O)N1CC(C)(C)C (some centres not stated) | inconclusive [rising, single point] | 
O=C(CCNc1ccc(F)cc1)c1ccco1 | inactive | 
CC(=O)c1c(C)n([O-])c2cc(F)c(F)cc2[n+]1=O | inconclusive [cytotoxic, single point] | 
COc1cccc(/C=N/NC(=O)C(=O)N/N=C/c2cccc(OC)c2OC)c1OC | inconclusive [cytotoxic, single point] | 
O=C(CCc1ccccc1)Nc1ccccc1C(=O)NCc1ccco1 | inactive | 

From PubChem BioAssay AID686970 (National Center for Advancing Translational Sciences (NCATS), 2013)
